This is one part of the list.

The test system of the test is T1, C. trachomatis L2/434/Bu expressing GFP (CTL2-GFP).
T1 construct: L2/434/Bu GFP intracellular growth in HeLa cells
Also noted: species or system HeLa; C. trachomatis total inclusion area by high-content imaging, normalised to DMSO. To be noted: total inclusion area; 28.5 h, 10 µM; inhibitor. Put shortly: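 High-content images of fixed, Hoechst-stained infected cultures supply inclusion area and count (growth) plus nuclei number (viability), complementing bulk GFP/resorufin fluorescence. MIC determination is unchanged from the primary assay.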
Take `CC1CCCN(C(=O)Cn2ncn3c(cc4ccsc43)c2=O)C1` (centres unmarked) [CBK284245]: the “% of control remaining” value came out at 97.2813.
Consider `CCn1cc(NS(=O)(=O)c2ccc(N3CCCC3=O)cc2)cn1` [CBK305922], for which the “% of control remaining” value is listed as 36.8271.
With `COC(=O)CCN(C)CCC(=O)OC` [CBK264539C], the “% of control remaining” value was 101.011.
`CCCNc1nc(O)cc(C(F)(F)F)n1` [CBK000214]: the “% of control remaining” value amounted to 105.829.
For `N#Cc1c(NC(=O)CSc2nnnn2-c2ccc(C(=O)O)cc2)sc2c1CCCC2` [CBK299876] the value was 108.261; for `CN(C)C(=O)CN1C(=O)CC2(C1=O)C(=O)N(C)c1ccc(Cl)cc12` (centres unmarked) [CBK075232], 96.867; for `NC(=O)C1CCN(CC(O)COc2ccc(-c3ccccc3)cc2)CC1` (centres unmarked) [CBK269528], 62.0566.
For `CC1(C)CC(NC(=O)c2cc(Cn3ccc4ccccc43)[nH]n2)CCO1` (centres unmarked) [CBK307092], the “% of control remaining” value is on record as 91.5395.
`Cc1nc2ccc(C(=O)NC3=NC(=O)CS3)cn2c1N(C)Cc1cccs1` [CBK146110]: the “% of control remaining” value is 127.182.
Consider `Cc1nc2c3c(sc2c(=O)[nH]1)NC(=O)CC3c1ccccc1` (centres unmarked) [CBK288094], for which the “% of control remaining” value was determined as 84.1217.
The result for `O=C(Cn1cnc2c(cnn2-c2ccc(F)cc2)c1=O)Nc1ccc(F)cc1F` [CBK287537] reads 93.8534.
In the case of `CN1CCN(C(=O)c2c(NS(=O)(=O)c3cc(F)c(Br)cc3F)sc3c2CCCC3)CC1` [CBK050419], the “% of control remaining” value was determined as 99.7341.
For `CCCC/C=C/c1nccnc1NCC1CC1` [CBK037268], the “% of control remaining” value is 76.6676.
The result for `C=CCn1c(-c2sc(NC(=O)c3ccc(CNC(=O)NC(C)C)cc3)nc2C)n[nH]c1=S` [CBK297764] reads 86.4015; that for `O=C(c1ccc(-c2ccc(F)cc2)o1)N1CCC(n2c(=O)oc3ccccc32)CC1` [CBK286175], 100.972.
With `O=C(NOCc1ccccc1)c1nn(-c2ncccn2)c2ccccc12` [CBK048503], the “% of control remaining” value worked out at 99.2436.
For `COc1ccc(-c2cn(-c3cc(Cl)ccc3C)nn2)cc1` [CBK113023] the value was 31.9669.
As for `COc1cncc(-c2ccc(N3CCN(C(=O)c4ccco4)CC3)nc2)c1` [CBK037801], the “% of control remaining” value is 86.2981.
The result for `O=C1CC(c2ccc(F)cc2)CC(=O)C1=CNCCN1CCN(C(=S)Nc2ccccc2)CC1` (centres unmarked) [CBK264784] reads 134.574; that for `CN(C)/C=N/c1ncnc2c1nc(Br)n2C1CC(O)C(CO)O1` (centres unmarked) [CBK201277], 138.501; that for `COc1ccc(C(=O)N2CCC3(CCCN(C(=O)c4ccc5[nH]c(=O)[nH]c5c4)C3)C2)cc1OC` (centres unmarked) [CBK137086], 90.8457.
On to `O=C(CCN1C(=O)/C(=C/c2ccc(F)cc2)SC1=S)NNC(=O)c1cccnc1` [CBK262862], for which the “% of control remaining” value is recorded as 54.2801.
As to `CC(C)(C)C1CCc2c(sc(NC(=S)NC(=O)c3cc4ccccc4o3)c2C(N)=O)C1` (centres unmarked) [CBK268635], the “% of control remaining” value is given as 112.355.
For `CCc1nnc(NS(=O)(=O)c2ccc(N/C=C3\C(=O)N(c4ccc(Cl)cc4)N=C3C)cc2)s1` [CBK262416] the value was 26.5858.
As to `c1ccc(N2CCN(c3cc(-c4cc5ccccc5s4)ncn3)CC2)nc1` [CBK091084], the “% of control remaining” value came to 86.2673.
The result for `Cc1ccc(C(=O)N2Cc3ccccc3C2)cn1` [CBK200318] reads 104.561.
Turning to `Nn1c(SCC(=O)Nc2cccc3ccccc23)nnc1-c1ccccc1Cl` [CBK266080], the “% of control remaining” value turned out to be 125.226.
The result for `Cn1c(Sc2ccc(C#N)cn2)nnc1-c1ccco1` [CBK297756] reads 108.668; that for `CCCCOc1ccccc1NC(=O)CC1NCCNC1=O` (centres unmarked) [CBK269299], 105.223.
Consider `CCc1ccc2c(c1)C(CCNC(=O)c1c(C)noc1C(F)F)C(=O)N2` (centres unmarked) [CBK304090], for which the “% of control remaining” value was determined as 68.7994.
With `CC(C)(C)Nc1cc(NCCc2ccccc2)nc(N)n1` [CBK012708], the “% of control remaining” value turned out to be 90.0134.
The result for `O=C1NCCN1C1CCN(c2ncnc3ccccc23)CC1` [CBK304896] reads 92.8166.
The result for `Cc1nonc1CNC(=O)N1CCOCC(C2CCC2)C1` (centres unmarked) [CBK304086] reads 111.235; that for `CC1CC(=O)C2C=C(c3ccc(Br)cc3)NN=C2C1` (centres unmarked) [CBK021352], 63.4168; that for `Cc1ccc(C(=O)O)cc1S(=O)(=O)N(C)CCO` [CBK267167], 118.632.
For `c1ccc(CCNc2cncc(-c3cc4ccccc4o3)n2)nc1` [CBK066036], the “% of control remaining” value is 92.6399.
In the case of `CCC(C)(C)c1ccc(S(=O)(=O)N2CCCN(Cc3ccnc4ccccc34)CC2)cc1` [CBK062865], the “% of control remaining” value came out at 87.5406.
For `CCOC(=O)c1cnn(C2CCCN(Cc3cccc(O)c3)C2)c1` (centres unmarked) [CBK304046] the value was 40.9177; for `C=CCn1c(S)nnc1-c1ccc(Br)cc1` [CBK096756], 75.524; for `O=C(OCC(=O)c1cccc2ccccc12)c1cc2ccccc2cc1O` [CBK265526], 82.0779.
For `Cc1cc(Br)ccc1C(=O)Nc1ccc2ncccc2c1` [CBK159814] the value was 89.5009.
The result for `Cc1nc(NS(=O)(=O)c2cc(Br)c(Cl)s2)sc1C(=O)O` [CBK045560] reads 87.8645; that for `CC1=NS(=O)(=O)NC2=C1CCCC2` [CBK022998], 78.1224; that for `O=C(c1ccc2nccnc2c1)N1CCN(c2ccccc2)CC1` [CBK200209], 74.5151.
On to `CN(Cc1ccncn1)C(=O)c1cn(CC2CCCO2)nn1` (centres unmarked) [CBK307081], for which the “% of control remaining” value was found to be 71.0989.
The result for `O=[N+]([O-])c1ccc(N2CCN(S(=O)(=O)c3ccc(Cl)cc3)CC2)cc1NCc1cccnc1` [CBK264749] reads 89.8557.
The result for `Cc1ccc2c(c1)C(NC(=O)C1CC1)CC1(CCOCC1)O2` (centres unmarked) [CBK284879] reads 101.642.
For `O=C(CC1CC1)N1CCCC2(CCN(C(=O)c3cc(F)c(F)cc3F)C2)C1` (centres unmarked) [CBK131531] the value was 97.5121.
As to `Cc1nnc(SCc2cc(=O)[nH]c(Nc3nc(C)c4cccc(C)c4n3)n2)s1` [CBK266740], the “% of control remaining” value is recorded as 89.8828.
For `CCN(C(=O)Cc1cc(OC)ccc1Br)c1cccnc1` [CBK305318] the value was 30.8303; for `CCC1CCCCN1C(=O)c1ccccc1OC` (centres unmarked) [CBK083205], 90.7326; for `O=C(c1cc(F)c(F)cc1F)N1CCC2(CCCN(Cc3ccc(Cl)c(Cl)c3)C2)C1` (centres unmarked) [CBK131990], 84.8705.
With `CCC(SC1=NCCS1)C(=O)Nc1ccc(NC(C)=O)cc1` (centres unmarked) [CBK266199], the “% of control remaining” value is given as 132.948.
As for `COc1ccc(C(NC(=O)c2cn3ccsc3n2)[C@H]2C[C@H](O)C2)cn1` (some centres unmarked) [CBK306744], the “% of control remaining” value was found to be 60.6146.
With `Cc1cccc(NC(=O)CSc2ncnc3sc4c(c23)CCC(C)C4)c1` (centres unmarked) [CBK265738], the “% of control remaining” value is listed as 81.6477.
The result for `CN1CCC(=NNC(=O)CN(c2cccc(Cl)c2)S(=O)(=O)c2ccccc2)CC1` [CBK262489] reads 106.211; that for `O=C(CSc1ccc2nnc(-c3ccc(F)cc3)n2n1)N1CCOCC1` [CBK287521], 117.577.
For `Cc1nn(-c2ccccc2)c(O)c1Cc1c(Cl)cccc1Cl` [CBK067760] the value was 79.5205.
Take `O=C(O)COCC(=O)N1CCN(c2ccccc2Cl)CC1` [CBK268155]: the “% of control remaining” value is recorded as 109.56.
The result for `C=C[C@H]1C[N@@]2CC[C@H]1C[C@@H]2CNS(=O)(=O)c1cccc2cccnc12` [CBK288751] reads 104.96; that for `Cc1ccccc1C(=O)Nc1ccc(F)c(F)c1` [CBK058249], 112.041.
For `CSc1nccc(N2CCC(NCCCn3ccnn3)CC2)n1` [CBK307076], the “% of control remaining” value turned out to be 64.0293.
The result for `Cc1ccc2c(c1)cc(C(=O)N1CCOC(C(=O)N3CCc4ccccc4C3)C1)n2C` (centres unmarked) [CBK286035] reads 116.742; that for `CC(C)n1c(NCc2ccccc2)nc2c1c(=O)n(C)c(=O)n2C` [CBK140094], 71.6036; that for `CN1CCN(C(=O)c2ccsc2NS(=O)(=O)c2ccc(Oc3ccccc3)cc2)CC1` [CBK042277], 113.267.
`O=C(NCCO)C1(Cc2ccc(-c3ccccc3)cc2)CCNC1` (centres unmarked) [CBK283043]: the “% of control remaining” value worked out at 65.2151.
`O=C(CCn1cnc2ccccc2c1=O)Nc1ccc(S(=O)(=O)N2CCOCC2)cc1` [CBK267645]: the “% of control remaining” value is reported as 109.251.
Turning to `COc1ccc(CNC2CCCc3ccccc32)c(OC)c1C` (centres unmarked) [CBK025778G], the “% of control remaining” value is 94.6762.
`c1ccc(-c2ccc(-c3cc(N4CCN(CCN5CCCC5)CC4)ncn3)cc2)cc1` [CBK091165]: the “% of control remaining” value was determined as 178.95.
With `Cc1cc(CNC(=O)Nc2ccc(F)c(-n3nnnc3C)c2)n(C)n1` [CBK305525], the “% of control remaining” value was determined as 44.6303.
With `CCCNC(=O)C(C)NC(=O)C1=Cc2ccccc2OC1` (centres unmarked) [CBK297937], the “% of control remaining” value was found to be 82.7734.
The result for `CN1CCC(=NNC(=O)CN(c2cccc([N+](=O)[O-])c2)S(=O)(=O)c2ccccc2)CC1` [CBK262727] reads 104.115; that for `CC(c1ncc(Br)cn1)N1CCN(Cc2noc(C(C)(C)C)n2)CC1` (centres unmarked) [CBK306168], 41.2178; that for `CCc1cc(C(=O)N2CCC(Oc3ccccc3F)CC2)n(C)n1` [CBK282172], 67.4526.
The result for `CC(C)c1ccc(/C=C/C(=O)NCc2ccc3occc3c2)cc1` [CBK149620] reads 104.866; that for `Nc1ncnc2c1C(c1ccc(Cl)cc1)c1c(ccc3ccccc13)O2` (centres unmarked) [CBK263938], 82.9041.
For `CCc1nn(CC(=O)N2CCCC(C)C2)c(=O)c2cc3occc3n12` (centres unmarked) [CBK283657] the value was 99.7997.
Take `O=C(CSc1nnc(-c2ccncc2)n1-c1ccccc1)N/N=C/c1c[nH]c2ccccc12` [CBK262776]: the “% of control remaining” value is on record as 104.736.
For the compound `Cc1nc(C(F)(F)F)ccc1NC(=O)CSCC(=O)O` [CBK056975], the “% of control remaining” value came to 77.1521.
For `Cc1cc(=O)oc(-c2ccccc2)c1C#N` [CBK004842] the value was 80.8943.

The values above are taken from publication PMC12040169 (PLOS Biology, 2025).
